# According to the supplement of paper PMC8728848:
# Some of the results follow.
# Columns and labels:
# Assay in all cases: glycan array binding signal (z-score within array); higher = stronger binding
# Details in all cases: glycan notation: IUPAC condensed, linker removed
# [1] = molecular target: Fuc(a1-2)Gal(b1-4)GlcNAc(b1-2)[Fuc(a1-2)Gal(b1-4)GlcNAc(b1-4)]Man(a1-3)[Fuc(a1-2)Gal(b1-4)GlcNAc(b1-2)Man(a1-6)]Man(b1-4)GlcNAc(b1-4)GlcNAc
# In short: (§1)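 Glycan array data were curated from 3228 arrays in the Consortium for Functional Glycomics database and kept only where the protein sequence was available. Glycan names were converted to IUPAC-condensed notation, and columns mapping to the same glycan were averaged. The binding signal is a within-array Z-score, averaged across arrays of the same protein sequence at different concentrations or buffers and across linkers. Negative Z-scores can be read as non-binding.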
# [2] = molecular target: Fuc(a1-2)Gal(b1-4)GlcNAc(b1-3)Gal(b1-4)GlcNAc
# In short: as §1
# [3] = molecular target: Fuc(a1-2)Gal(b1-4)GlcNAc(b1-3)Gal(b1-4)GlcNAc(b1-2)Man(a1-3)[Fuc(a1-2)Gal(b1-4)GlcNAc(b1-3)Gal(b1-4)GlcNAc(b1-2)Man(a1-6)]Man(b1-4)GlcNAc(b1-4)GlcNAc
# In short: as §1
# [4] = molecular target: Fuc(a1-2)Gal(b1-4)GlcNAc(b1-3)Gal(b1-4)GlcNAc(b1-3)Gal(b1-4)GlcNAc
# In short: as §1
# [5] = molecular target: Fuc(a1-2)Gal(b1-4)GlcNAc(b1-3)GalNAc
# In short: as §1
# [6] = molecular target: Fuc(a1-2)Gal(b1-4)GlcNAc(b1-3)[Fuc(a1-2)Gal(b1-4)GlcNAc(b1-6)]GalNAc
# In short: as §1
# [7] = molecular target: Fuc(a1-2)Gal(b1-4)GlcNAc(b1-3)[Fuc(a1-3)[Gal(b1-4)]GlcNAc(b1-6)]Gal(b1-4)Glc
# In short: as §1
# [8] = molecular target: Fuc(a1-2)Gal(b1-4)GlcNAc(b1-6)GalNAc
# In short: as §1
# [9] = molecular target: Fuc(a1-2)Gal(b1-4)GlcNAc6S
# In short: as §1
# [10] = molecular target: Fuc(a1-2)Gal(b1-4)[Fuc(a1-3)]GlcNAc
# In short: as §1
# [11] = molecular target: Fuc(a1-2)Gal(b1-4)[Fuc(a1-3)]GlcNAc(b1-2)Man(a1-3)[Fuc(a1-2)Gal(b1-4)[Fuc(a1-3)]GlcNAc(b1-2)Man(a1-6)]Man(b1-4)GlcNAc(b1-4)GlcNAc
# In short: as §1
# [12] = molecular target: Fuc(a1-2)Gal(b1-4)[Fuc(a1-3)]GlcNAc(b1-2)Man(a1-3)[Fuc(a1-2)Gal(b1-4)[Fuc(a1-3)]GlcNAc(b1-2)Man(a1-6)]Man(b1-4)GlcNAc(b1-4)[Fuc(a1-6)]GlcNAc
# In short: as §1
# [13] = molecular target: Fuc(a1-2)Gal(b1-4)[Fuc(a1-3)]GlcNAc(b1-2)[Fuc(a1-2)Gal(b1-4)[Fuc(a1-3)]GlcNAc(b1-4)]Man(a1-3)[Fuc(a1-2)Gal(b1-4)[Fuc(a1-3)]GlcNAc(b1-2)Man(a1-6)]Man(b1-4)GlcNAc(b1-4)GlcNAc
# In short: as §1
# [14] = molecular target: Fuc(a1-2)Gal(b1-4)[Fuc(a1-3)]GlcNAc(b1-3)Gal(b1-4)[Fuc(a1-3)]GlcNAc
# In short: as §1
# [15] = molecular target: Fuc(a1-2)Gal(b1-4)[Fuc(a1-3)]GlcNAc(b1-3)Gal(b1-4)[Fuc(a1-3)]GlcNAc(b1-3)Gal(b1-4)[Fuc(a1-3)]GlcNAc
# In short: as §1
# [16] = molecular target: Fuc(a1-2)Gal(b1-4)[Fuc(a1-3)]GlcNAc(b1-3)GalNAc
# In short: as §1
# [17] = molecular target: Fuc(a1-2)Gal(b1-4)[Fuc(a1-3)]GlcNAc(b1-3)[Neu5Ac(a2-6)Gal(b1-4)GlcNAc(b1-6)]Gal(b1-4)Glc
# In short: as §1
# [18] = molecular target: Fuc(a1-2)Gal3S(b1-4)GlcNAc
# In short: as §1
# [19] = molecular target: Fuc(a1-2)Gal6S(b1-3)GlcNAc
# In short: as §1
# [20] = molecular target: Fuc(a1-2)Gal6S(b1-3)GlcNAc6S
# In short: as §1
# [21] = molecular target: Fuc(a1-2)Gal6S(b1-4)Glc
# In short: as §1
# [22] = molecular target: Fuc(a1-2)Gal6S(b1-4)Glc6S
# In short: as §1
# [23] = molecular target: Fuc(a1-2)Gal6S(b1-4)GlcNAc
# In short: as §1
# [24] = molecular target: Fuc(a1-2)[Gal(a1-3)]Gal
# In short: as §1
# [25] = molecular target: Fuc(a1-2)[Gal(a1-3)]Gal(b1-3)GalNAc
# In short: as §1
# [26] = molecular target: Fuc(a1-2)[Gal(a1-3)]Gal(b1-3)GalNAc(b1-3)Gal(a1-4)Gal(b1-4)Glc
# In short: as §1
# [27] = molecular target: Fuc(a1-2)[Gal(a1-3)]Gal(b1-3)GlcNAc
# In short: as §1
# [28] = molecular target: Fuc(a1-2)[Gal(a1-3)]Gal(b1-3)GlcNAc(b1-2)Man(a1-3)[Fuc(a1-2)[Gal(a1-3)]Gal(b1-3)GlcNAc(b1-2)Man(a1-6)]Man(b1-4)GlcNAc(b1-4)GlcNAc
# In short: as §1
# [29] = molecular target: Fuc(a1-2)[Gal(a1-3)]Gal(b1-3)GlcNAc(b1-2)Man(a1-3)[Fuc(a1-2)[Gal(a1-3)]Gal(b1-3)GlcNAc(b1-2)Man(a1-6)]Man(b1-4)GlcNAc(b1-4)[Fuc(a1-6)]GlcNAc
# In short: as §1
# [30] = molecular target: Fuc(a1-2)[Gal(a1-3)]Gal(b1-3)GlcNAc(b1-3)GalNAc
# In short: as §1
binder,measurement,setting,value
"Gal 1 (Mus musculus), P16045 (protein) MACGLVASNLNLKPGECLKVRGEVASDAKSFVLNLGKDSNNLCLHFNPRFNAHGDANTIVCNTKEDGTWGTEHREPAFPFQPGSITEVCITFDQADLTIKLPDGHEFKFPNRLNMEAINYMAADGDFKIKCVAFE",glycan array binding signal (z-score),[1],0.547
same,glycan array binding signal (z-score),[2],-0.082
same,glycan array binding signal (z-score),[3],0.751
same,glycan array binding signal (z-score),[4],-0.014
same,glycan array binding signal (z-score),[5],-0.219
same,glycan array binding signal (z-score),[6],-0.06
same,glycan array binding signal (z-score),[7],-0.131
same,glycan array binding signal (z-score),[8],-0.126
same,glycan array binding signal (z-score),[9],-0.205
same,glycan array binding signal (z-score),[10],-0.34
same,glycan array binding signal (z-score),[11],-0.212
same,glycan array binding signal (z-score),[12],-0.266
same,glycan array binding signal (z-score),[13],-0.199
same,glycan array binding signal (z-score),[14],-0.414
same,glycan array binding signal (z-score),[15],-0.316
same,glycan array binding signal (z-score),[16],-0.099
same,glycan array binding signal (z-score),[17],-0.44
same,glycan array binding signal (z-score),[18],-0.367
same,glycan array binding signal (z-score),[19],-0.468
same,glycan array binding signal (z-score),[20],-0.087
same,glycan array binding signal (z-score),[21],-0.302
same,glycan array binding signal (z-score),[22],-0.128
same,glycan array binding signal (z-score),[23],-0.185
same,glycan array binding signal (z-score),[24],-0.365
same,glycan array binding signal (z-score),[25],-0.363
same,glycan array binding signal (z-score),[26],-0.398
same,glycan array binding signal (z-score),[27],0.982
same,glycan array binding signal (z-score),[28],-0.154
same,glycan array binding signal (z-score),[29],-0.208
same,glycan array binding signal (z-score),[30],-0.269
